# Measured values taken from the supplement of paper PMC9446081.
# The whole screen tested about 39,000 compounds, of which about 220 (0.56%) showed activity. The list shows a part of the results.
# System: Escherichia coli K-12 BW25113
# Test: relative growth (OD600 normalised to plate interquartile mean) (fraction); higher = less growth inhibition, active = 0.2 or less
# Details: 50 µM; LB; incubation time: overnight (16-24 h)
# 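Further: static incubation at 37 °C against the wild-type strain, values averaged over two biological replicates.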
row,Compound,relative growth
1,NCC[C@H]1CC[C@H](NC(=O)C2CC2)[C@H](CO)O1,inactive: 1.04
2,CC(=O)OCC1=C(C(=O)O)N2C(=O)[C@@H](NC(=O)CSc3ccncc3)[C@H]2SC1,inactive: 1.05
3,C[C@@H]1CN([C@H](C)CO)C(=O)c2cc(C#Cc3cccc(F)c3)cnc2O[C@@H]1CN(C)CC1CCOCC1,inactive: 1
4,C[C@@H]1CCCCO[C@@H](CN(C)Cc2ccc(C(=O)O)cc2)[C@H](C)CN([C@@H](C)CO)C(=O)c2cc(NS(=O)(=O)c3cccs3)ccc2O1,inactive: 1.01
5,C[C@H]1CCCCO[C@@H](CN(C)Cc2ccc(C(=O)O)cc2)[C@@H](C)CN([C@@H](C)CO)C(=O)c2cc(NC(=O)Nc3ccc(C(F)(F)F)cc3)ccc2O1,inactive: 0.995
6,CC(C)NC(=O)Nc1ccc2c(c1)CC(=O)N([C@@H](C)CO)C[C@@H](C)[C@@H](CN(C)Cc1ccc(-c3ccccc3)cc1)O2,inactive: 0.993
7,CNC[C@H]1Oc2c(NS(=O)(=O)c3cn(C)cn3)cccc2C(=O)N([C@@H](C)CO)C[C@@H]1C,inactive: 0.994
8,COc1ccc(NC(=O)Nc2ccc3c(c2)C(=O)N([C@@H](C)CO)C[C@@H](C)[C@H](CN(C)Cc2ccc(C(=O)O)cc2)OCCCC[C@@H](C)O3)cc1,inactive: 0.991
9,C[C@H]1CN([C@@H](C)CO)C(=O)c2cc(-c3cccc(C#N)c3)cnc2O[C@@H]1CN(C)C(=O)C1CCOCC1,inactive: 1.01
10,C[C@@H](NC(=O)COc1ccccc1)C(=O)O,inactive: 0.907
11,CC(=NNC(=O)c1nnn(-c2nonc2N)c1CN1CCC(C)CC1)c1cccc(Br)c1,inactive: 1.06
12,CCc1nc2ccc(C(=O)N3CCN(c4ccccc4)CC3)cn2c1N(CC)Cc1cccc(Br)c1,inactive: 1.03
13,C[C@@H]1CN([C@@H](C)CO)C(=O)c2cc(N(C)C)ccc2O[C@@H](C)CCCCO[C@@H]1CN(C)C(=O)Nc1cccc2ccccc12,inactive: 0.983
14,C[C@@H]1CCCCO[C@H](CN(C)C(=O)C2CCCCC2)[C@H](C)CN([C@@H](C)CO)C(=O)c2cc(NC(=O)C3CCCCC3)ccc2O1,inactive: 0.99
15,C[C@H]1CN([C@@H](C)CO)C(=O)Cc2cc(NC(=O)NC3CCCCC3)ccc2O[C@@H]1CN(C)Cc1ccc(C(F)(F)F)cc1,inactive: 1.03
16,Cc1noc(C)c1NC(=O)Nc1ccc2c(c1)C(=O)N([C@H](C)CO)C[C@H](C)[C@H](CN(C)C(=O)Nc1cccc3ccccc13)O2,inactive: 1.01
17,C[C@@H]1CN([C@@H](C)CO)C(=O)CCCn2cc(nn2)CO[C@@H]1CN(C)S(=O)(=O)c1ccc2ccccc2c1,inactive: 1
18,Cc1noc(C)c1NC(=O)N(C)C[C@@H]1Oc2c(NC(=O)C3CC3)cccc2C(=O)N([C@H](C)CO)C[C@H]1C,inactive: 0.989
19,CN(C)Cc1nc2c([nH]1)c(=O)[nH]c(=O)n2C,inactive: 0.998
20,COCC#Cc1ccc2c(c1)O[C@@H](CN(C)S(C)(=O)=O)[C@H](C)CN([C@H](C)CO)S2(=O)=O,inactive: 0.986
21,C[C@H](CO)N1C[C@H](C)[C@H](CN(C)S(=O)(=O)c2ccc(F)cc2)Oc2ccc(NC(=O)CCN3CCOCC3)cc2CC1=O,inactive: 1.05

row,Compound,relative growth
1,COC(=O)[C@@H](Cc1ccccc1)N[C@H](/C=C/C1CC1)[C@@H](O)CCn1cc(-c2ccc(C(=O)NO)cc2)nn1,inactive: 0.933
2,O=C(N[C@H]1CC[C@H](CCn2cc(C3(O)CCCC3)nn2)O[C@H]1CO)C1CCOCC1,inactive: 0.979
3,C[C@H](CO)N1C[C@H](C)[C@@H](CN(C)Cc2ccc(Cl)c(Cl)c2)OCc2ccccc2-c2ccccc2C1=O,inactive: 0.99
4,NCc1nc(CCc2ccccc2)cs1,inactive: 1
5,COc1ccc(NC(=O)N2C[C@H](O)COC[C@@H]3O[C@@H](CC(=O)NC4Cc5ccccc5C4)CC[C@H]32)cc1,inactive: 0.993
6,COc1ccc(S(=O)(=O)Nc2cccc3c2O[C@@H](CN(C)S(=O)(=O)c2ccc(F)cc2)[C@H](C)CN([C@H](C)CO)C3=O)cc1,inactive: 1.01
7,C[C@H](CO)N1C[C@H](C)[C@H](CN(C)C(=O)Nc2ccc(F)cc2)Oc2ncc(C#CC(C)(C)O)cc2C1=O,inactive: 0.979
8,O=C(O)C[C@@H]1CC[C@@H]2[C@H](COC[C@@H](O)CN2S(=O)(=O)c2ccc(F)cc2)O1,inactive: 1.01
9,CC(C)CCC[C@@H](C)N,inactive: 0.959
10,COC(=O)CCCCCCC(=O)N/N=C/[C@H](O)[C@H](O)[C@@H](O)[C@H](C)O,inactive: 1.01
11,CN(C)C(=O)[C@@H]1[C@@H](CO)[C@@H]2Cn3c(ccc(C4=CCCC4)c3=O)[C@H]1N2S(=O)(=O)c1cn(C)cn1,inactive: 0.992
12,C[C@@H]1CN([C@H](C)CO)C(=O)c2cc(NC(=O)c3ccccc3)ccc2O[C@@H](C)CCCCO[C@H]1CN(C)Cc1ccc2c(c1)OCO2,inactive: 0.917
13,CCOC(=O)C(CCc1ccccc1)NC(C)C(=O)N(CC(=O)O)C1Cc2ccccc2C1.Cl (stereo unspecified),inactive: 1.03
14,CC(=O)N1CCC2(CC1)NC(=O)NC2=O,inactive: 0.994
15,COc1ccc(NC(=O)N(C)C[C@@H]2OCCCC[C@@H](C)Oc3ccc(NC(=O)Nc4ccc(F)cc4)cc3C(=O)N([C@@H](C)CO)C[C@@H]2C)cc1,inactive: 1.01
16,O=C(C[C@H]1CC[C@H]2[C@@H](COC[C@H](O)CN2S(=O)(=O)c2cccc(F)c2)O1)NCCCN1CCOCC1,inactive: 0.992
17,CN1CCN(C(=O)[C@H]2[C@H](CO)[C@H]3Cn4c(cccc4=O)[C@@H]2N3Cc2ccncc2)CC1,inactive: 1.02
18,C[C@H]1CN([C@@H](C)CO)C(=O)Cc2cc(NC(=O)Nc3cccc4ccccc34)ccc2O[C@H]1CN(C)C(=O)NC1CCCCC1,inactive: 1.02
19,O=C(CCCN1CCN(c2ccccn2)CC1)c1ccc(F)cc1,inactive: 1.02
20,C[C@@H]1CN([C@H](C)CO)C(=O)c2cc(NC(=O)C3CCCCC3)ccc2O[C@@H]1CN(C)Cc1ccc(-c2ccccc2)cc1,inactive: 1.01
